Test results published in the supplement of paper PMC4604168 (melanoma cell lines).
The other results are listed elsewhere or left out. Single values are uncertain, as repeats are few or missing.

How the values were obtained:
Assay in all cases: cell count relative to DMSO control; melanoma cells; higher = more viable cells
Details in all cases: library dose: low library concentration; 72 h; first compound 0.4 µM
MZ2-MEL = test system: MZ2-MEL
MeWo = test system: MeWo
RPMI7951 = test system: RPMI7951
RVH-421 = test system: RVH-421
SkMel28 = test system: SkMel28
SkMel2 = test system: SkMel2
SkMel30 = test system: SkMel30
SkMel5 = test system: SkMel5
UACC257 = test system: UACC257
UACC62 = test system: UACC62
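Note: cell number obtained by counting DAPI-stained nuclei in high-throughput microscope images with image analysis software, screen run in 1,536-well plates.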

Structure (SMILES)	cell count (MZ2-MEL) [%]	cell count (MeWo) [%]	cell count (RPMI7951) [%]	cell count (RVH-421) [%]	cell count (SkMel28) [%]	cell count (SkMel2) [%]	cell count (SkMel30) [%]	cell count (SkMel5) [%]	cell count (UACC257) [%]	cell count (UACC62) [%]
CCCCCCCCCCCCCCCCCCOP(=O)([O-])OC1CC[N+](C)(C)CC1 [Perifosine] + COc1ccc(-c2ccc3c(N4CCOCC4)nc(N4C[C@@H](C)O[C@@H](C)C4)nc3n2)cc1CO [KU0063794] (partner dose 0.02 µM)	103	97.9	60.1	98.1	89.7	93.3	96.1	88.4	85.8	90.9
C[C@@H](N)c1ccc(C(=O)Nc2ccnc3[nH]ccc23)cc1 + CN(NC(=O)CC(=O)NN(C)C(=S)c1ccccc1)C(=S)c1ccccc1 [STA4783] (partner dose 0.006 µM)	87.2	37.2	80.8	76.6	53.6	88.6	94.9	88.5	56.4	67.9
CCCCCCCCCCCCCCCCCCOP(=O)([O-])OC1CC[N+](C)(C)CC1 [Perifosine] + O=C1NC(=O)/C(=C/c2ccc(-c3ccc(F)cc3O)o2)S1 [AS252424] (partner dose 1 µM)	101	104	81.5	145	91.8	96.4	83.7	111	99.8	88
CCCCCCCCCCCCCCCCCCOP(=O)([O-])OC1CC[N+](C)(C)CC1 [Perifosine] + COc1cc(Nc2ncc(F)c(Nc3ccc4c(n3)NC(=O)C(C)(C)O4)n2)cc(OC)c1OC [Tamatinib] (partner dose 0.4 µM)	74.5	72.7	39.8	100	70.8	77.9	46.7	93	81.6	67.2
C[C@@H](N)c1ccc(C(=O)Nc2ccnc3[nH]ccc23)cc1 + CC(C)CCN1c2nc(Nc3cc(F)c(O)c(F)c3)ncc2N(C)C(=O)C1C [BID1870] (partner dose 0.2 µM)	76.5	68.6	81.4	84.8	71	102	107	112	59.5	63.1
CCCCCCCCCCCCCCCCCCOP(=O)([O-])OC1CC[N+](C)(C)CC1 [Perifosine] + COc1ccc2c(c1)CCC1C2CCC2(C)C(NCCCCCCN3C(=O)C=CC3=O)CCC12 [U73122] (partner dose 0.4 µM)	93.9	105	51.4	144	97.9	93.5	126	91.5	102	92.2
CCCCCCCCCCCCCCCCCCOP(=O)([O-])OC1CC[N+](C)(C)CC1 [Perifosine] + CCCCCCCCCCCC1=C(O)C(=O)C=C(O)C1=O [Embelin] (partner dose 1.2 µM)	97.5	114	82.9	107	102	96.2	93.7	100	110	80.8
C[C@@H](N)c1ccc(C(=O)Nc2ccnc3[nH]ccc23)cc1 + O=C1NC(=O)/C(=C/c2ccc(-c3ccc(F)cc3O)o2)S1 [AS252424] (partner dose 1 µM)	75.2	59.6	59.6	69.9	58	107	105	88.7	75.9	74.7
C[C@@H](N)c1ccc(C(=O)Nc2ccnc3[nH]ccc23)cc1 + CCCCCCCCCCCC1=C(O)C(=O)C=C(O)C1=O [Embelin] (partner dose 1.2 µM)	65.6	62.6	85.1	79.7	74.1	95.3	80	69.4	69.3	60.4
Cn1sc(=O)n(Cc2ccccc2)c1=O + Cn1cc(/C=C2\C(=O)Nc3cccnc32)c2ccccc21 [GW441756] (partner dose 0.4 µM)	104	104	106	92.8	84.5	104	88.3	68.7	74.4	87.5
Cn1sc(=O)n(Cc2ccccc2)c1=O + C=CCn1c(=O)c2cnc(Nc3ccc(N4CCN(C)CC4)cc3)nc2n1-c1cccc(C(C)(C)O)n1 [MK1775] (partner dose 0.02 µM)	112	107	111	111	96.4	93.9	87.4	96.6	73.7	92.3
CCCCCCCCCCCCCCCCCCOP(=O)([O-])OC1CC[N+](C)(C)CC1 [Perifosine] + Cc1nc(Nc2ncc(C(=O)Nc3c(C)cccc3Cl)s2)cc(N2CCN(CCO)CC2)n1 [dasatanib] (partner dose 0.004 µM)	90.6	91.4	50.2	80.5	76.1	87	85.1	–	–	74.5
C[C@@H](N)c1ccc(C(=O)Nc2ccnc3[nH]ccc23)cc1 + Cc1nc(Nc2ncc(C(=O)Nc3c(C)cccc3Cl)s2)cc(N2CCN(CCO)CC2)n1 [dasatanib] (partner dose 0.004 µM)	49.3	90.7	78.4	50.6	59.3	80.7	107	–	–	48.6
C[C@@H](N)c1ccc(C(=O)Nc2ccnc3[nH]ccc23)cc1 + Cc1cc(Nc2cc(N3CCN(C)CC3)nc(/C=C/c3ccccc3)n2)n[nH]1 [ENMD2076] (partner dose 0.04 µM)	69.7	77.8	79.9	68.8	103	106	86.5	–	–	85.6
